# Some of the results follow. At the low end of the ranking the order means little.
# Test system: T1, GST-NbGlk1(82-244)
# T1 sequence: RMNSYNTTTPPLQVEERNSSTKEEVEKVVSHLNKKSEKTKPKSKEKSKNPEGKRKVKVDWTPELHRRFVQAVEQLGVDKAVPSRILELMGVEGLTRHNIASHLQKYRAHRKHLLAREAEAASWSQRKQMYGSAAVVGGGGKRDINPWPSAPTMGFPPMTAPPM
# Experiment: protein-binding microarray;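 also: rank-based score ranging −0.5 to +0.5 with E above 0.45 taken as significant binding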
# Settings: NbGlk1 is a Golden2-like transcription factor of Nicotiana benthamiana; high values mean tight binding; most listed sequences are background and not binding sites; double strand, one strand shown
row,Sequence,binding signal [E-score]
1,AACCAGAA,0.107
2,AGGAGCTA,-0.169
3,AGACATTA,0.0496
4,ACTTATTA,0.125
5,ATACCCTG,0.011
6,AAAAAGAC,-0.0621
7,AATGTGAG,-0.00782
8,AGCCACCT,-0.22
9,CAAATGTG,-0.00951
10,ATCACCAA,0.101
11,ACGGCCGA,-0.0553
12,AGGTAACA,-0.163
13,ATGGACGC,-0.126
14,AGCACCTG,-0.228
15,CAAAGAGG,-0.118
16,AAAGCAGC,-0.045
17,ATCGTATC,0.36
18,AAATACCA,0.0562
19,AACACCTT,0.0389
20,ATGATAGA,0.166
21,CACCTGAA,-0.148
22,ACCTTCTA,-0.062
23,ACCCTGTG,-0.135
24,ACCGCTGA,-0.179
25,ATTTGCTG,0.225

row,Sequence,binding signal [E-score]
1,ATGCCTAA,0.0514
2,ACACGGTG,-0.206
3,ACGAGAAC,-0.0407
4,AAGTAGAG,-0.113
5,ATTATACG,0.138
6,AAAACCGG,0.113
7,AGGCAACC,-0.215
8,ACCTCCCG,-0.176
9,AGATATCC,0.48
10,ATATGGGA,0.208
11,CAGCGAGC,-0.255
12,AGGCTTGA,-0.164
13,CAACATCC,0.0464
14,AAATTTGT,0.157
15,ACACCCAA,-0.196
16,ACAACGCG,-0.0812
17,AAGGGAAG,-0.253
18,AAAGCAGA,0.0773
19,AACCAAAG,-0.0575
20,AAAAAGGG,-0.0601
21,AAGGGTTC,-0.194
22,ATCAGAGC,0.0491
23,AACCAAGA,0.0663
24,ATACTGCG,0.0586
25,ACACATCA,-0.0432

row,Sequence,binding signal [E-score]
1,AATTCGTC,0.0604
2,AAAACCGC,-0.159
3,AAAGGTGC,-0.174
4,ATCCTACG,0.116
5,AGCTGCCG,-0.271
6,AAGGTCAG,-0.155
7,ACCCTCAT,-0.114
8,ACAGCGGT,-0.215
9,ATTCATGG,0.0088
10,AGTGAGTA,-0.03
11,AACCTGTG,-0.0744
12,ACCGCAAA,-0.0137
13,ACATCAAG,0.00309
14,CAAGATAA,0.0886
15,ATTGTTGG,0.0975
16,CAATAAGG,-0.028
17,ACGTAAGT,0.0284
18,AGCATACC,-0.088
19,AATGTATA,0.109
20,ACGTTCTC,-0.263
21,AGGGGTCA,-0.277
22,AAATGACA,-0.0441
23,AGCCCAAA,-0.053
24,AGGATTAG,-0.0156
25,ATACGGTG,0.107

row,Sequence,binding signal [E-score]
1,CAATAAAG,0.0383
2,CAACGTTG,0.102
3,ACAGATTC,0.429
4,AAGGGCCC,-0.301
5,CAATCGCG,0.257
6,CAGCAATC,0.339
7,ACACCCGC,-0.109
8,ACCTTTGG,-0.19
9,AATGCGCG,-0.0078
10,ACAGAGAG,-0.159
11,AAGGTCTG,-0.107
12,ACTGGAGA,0.0064
13,ATACAAGC,-0.0415
14,ATATAAAA,0.212
15,AGTAAGGG,-0.206
16,AACGAATG,-0.115
17,CAACTGGG,-0.185
18,CAATGCCA,-0.133
19,ACTCTCCG,-0.118
20,AGTTGCGC,-0.119
21,ACGTCTCA,-0.134
22,ATACGCCG,0.128
23,ACATTATA,0.112
24,ATTCTGTG,0.25
25,ACCACCGG,-0.131

row,Sequence,binding signal [E-score]
1,AGAATTTA,0.222
2,ACAGTTCC,-0.0264
3,ATATTGCC,0.249
4,AAAGTTAA,-0.0775
5,ACACTCCA,-0.211
6,AGTCTTAC,0.0345
7,ACATTTTC,0.0919
8,CACTTCCC,-0.21
9,CAACGGAC,-0.0318
10,ATATTTCA,0.302
11,AGCGAAAC,-0.0203
12,CACCAGCC,-0.101
13,AAAAGTCA,-0.167
14,AGACCCCC,-0.39
15,AGCAAAGC,-0.124
16,ACCCGTGG,-0.197
17,AATGCAGA,0.0978
18,AAGCGGGG,0.0556
19,ACGTAACA,0.0889
20,AGGTAGGC,-0.266
21,ACATCCGC,0.00512
22,CAACGATC,0.137
23,AGCAGACC,-0.152
24,AAGGCTAA,-0.12
25,ACATCCCC,-0.192

row,Sequence,binding signal [E-score]
1,CACTTTCC,-0.00426
2,ATCACACA,0.274
3,ACAAACCT,-0.0659
4,AAGTGCCG,-0.0506
5,AGGAAGTG,0.0256
6,AAGCGTGA,-0.072
7,CACTAATC,0.0782
8,AAGCACGA,-0.00998
9,ACCATGGA,-0.149
10,AGCCTCAA,-0.0728
11,ACCTTCGT,-0.256
12,AGTTCTAA,0.02
13,AATAGAGC,0.000501
14,ACGCGGTC,-0.25
15,CACGCTGC,-0.103
16,AAGCTCAC,-0.214
17,ACTTTCAC,-0.0688
18,ACACTAAC,-0.0362
19,AATTCTTC,0.128
20,ATGGGATC,0.191
21,ATGCTCAC,-0.064
22,AGGACACT,-0.142
23,CAATGCTC,-0.242
24,ACCGTGGC,-0.316
25,ACAGTGTC,-0.154

row,Sequence,binding signal [E-score]
1,AGACCCTC,-0.276
2,AGAGATAC,0.222
3,CACCCATA,0.0776
4,AGACACAA,-0.0017
5,AGTCGGCC,-0.199
6,ATCCTCAT,0.212
7,AACTCGCA,0.0485
8,CACTGTAA,0.13
9,ATGTCTCG,-0.0633
10,CACCTCAG,-0.118
11,AATTATGG,0.137
12,AAGTTGAG,-0.0673
13,ACTGGAAT,0.256
14,ACTGCGCG,-0.0216
15,AGTCCGAG,-0.211
16,CACAAACA,0.0675
17,ACACCTTC,-0.055
18,AGAGATCA,0.145
19,AAGGCAAC,-0.117
20,ACACGATA,0.189
21,AGACATTC,-0.0859
22,AGTTCGAT,0.0306
23,ATATATGA,0.285
24,AAGATTGG,0.206
25,AATGTACT,-0.0439

row,Sequence,binding signal [E-score]
1,AGACGAGA,0.132
2,AGCTAGTA,-0.0696
3,ACGTCAGC,-0.197
4,AAGCGCCA,-0.233
5,ATGATTTG,0.257
6,ACATTAAT,0.0863
7,ACGAGCTA,-0.113
8,AACGGTCG,-0.174
9,CAGCAGGC,-0.201
10,AATCAGTG,0.266
11,ATCCGTCC,0.0276
12,AGCGCTAT,-0.094
13,ACAGCAGC,-0.0694
14,AGGGGCTG,-0.171
15,ACCCGTCC,-0.218
16,AGAACCGG,-0.226
17,ACTTAACC,-0.0358
18,AACAACGA,0.063
19,ACGCTTTC,-0.173
20,ACTTTAAA,0.0978
21,AGTCGACT,-0.153
22,AAGCACTC,-0.236
23,AGGCATCG,-0.113
24,CAACCCTC,-0.172
25,AATCGAAT,0.318

row,Sequence,binding signal [E-score]
1,ATCGACTG,0.0842
2,AAACGCTC,-0.0777
3,ATGGACAG,-0.0969
4,AAACCGAC,-0.115
5,AAGCAGAG,-0.0914
6,AGTGCGAC,-0.0858
7,ATGGGGTG,0.046
8,AGCGATTA,0.142
9,AATTGCTG,-0.0811
10,AATACGGT,0.05
11,AATTGACA,0.0868
12,ACGCATGA,-0.12
13,ACTTTTTG,0.036
14,AGGGCCTA,-0.268
15,AGGTTTAG,-0.133
16,AATCGCGC,0.311
17,AAGCCGCT,-0.33
18,AAATATCA,0.367
19,AGTGCACG,-0.18
20,AGAATGTC,-0.153
21,AATACTTG,0.0444
22,ACTTCTTC,-0.121
23,AGAATGGG,-0.163
24,ATGCGGTC,-0.202
25,CAAGTTTC,-0.0676

row,Sequence,binding signal [E-score]
1,AAACCAAA,0.13
2,AAACATTT,0.151
3,ATGCCACG,-0.0964
4,AATTAATA,0.114
5,AAGCGCGC,-0.02
6,ACTGTCCT,-0.0225
7,AAATATAT,0.326
8,ACTCCTCT,0.0244
9,ACAATGCC,-0.165
10,AGTAGCTC,-0.172
11,ACAGGGTG,-0.264
12,CAATTATG,0.0299
13,AACCTGGC,-0.119
14,ACCGCTTC,-0.159
15,ATTTTCGG,0.237
16,AGCCGCCA,-0.26
17,AATCTAGA,0.452
18,AGACCGGA,0.016
19,ACATTAGG,0.00657
20,AAAAGTGA,0.0333
21,AAGGACGC,-0.201
22,CACGGTGA,-0.1
23,AACTGAAT,0.111
24,AGCCCACA,-0.244
25,ACGTTAAG,0.0386

row,Sequence,binding signal [E-score]
1,AACTGTTA,0.149
2,CAGCGTGG,-0.0969
3,ACAACCGT,-0.0556
4,ACAAAAGG,-0.12
5,AGAAATAG,0.0671
6,AGACGCCT,-0.26
7,AGCGCCCA,-0.224
8,ACATATTG,0.00192
9,ATAGCTTC,-0.12
10,CACTCGAC,-0.126
11,AAGTCGTG,-0.0835
12,AACCGCCA,-0.19
13,AGGACCTC,-0.289
14,ATTGATAA,0.126
15,ATGTCACG,0.00163
16,ACCCCTGC,-0.197
17,ATACTAGC,-0.0233
18,AAGACAGT,0.0876
19,AAGATCGG,0.151
20,CAGCCTCC,-0.266
21,ATTCCTTG,0.228
22,ACCGGGCC,-0.281
23,AATATTTC,0.34
24,ATTTTTTC,0.3
25,CACGAATC,0.332

row,Sequence,binding signal [E-score]
1,ACATGGCT,-0.0655
2,AGATTCCT,0.455
3,ATGGAGAG,-0.15
4,ACCATGAG,-0.156
5,AACCAGCT,-0.175
6,ACGATACG,0.207
7,ACGCTCTC,-0.304
8,AGGTTCAG,-0.154
9,ATTGGCAG,-0.132
10,ATTCTGGA,0.248
11,AAAAACTA,0.127
12,ACTCATAT,0.134
13,AGAGCGTA,0.0178
14,ATGGGCCG,-0.139
15,AGCGGCAC,-0.163
16,ATCCACAT,0.256
17,ATATCGAG,0.296
18,ACCTAGTA,-0.0967
19,AAGGGTAC,-0.186
20,ATAGCCCC,-0.0888
21,AATGCTGG,-0.177
22,AGCTCGTG,-0.223
23,AGCATCGA,0.0366
24,AAACATGC,-0.0323
25,AATGTAGT,0.055

row,Sequence,binding signal [E-score]
1,AGTATACC,-0.111
2,AATCGTGT,0.314
3,ACAATGGT,0.0219
4,AGCGACTC,-0.193
5,ACCCGAGA,0.0141
6,ACACTGAG,-0.182
7,AACTGATA,0.214
8,AAGATCTA,0.356
9,AGATCAAG,0.113
10,AATGCGTA,0.129
11,ACATCGCG,0.0704
12,AATAGTGC,-0.0111
13,ACCCCAAG,-0.191
14,ACTTAAAT,0.139
15,ATTCAAAA,0.111
16,AGCGACCT,-0.243
17,AGCCATTC,-0.114
18,AAGCCGAC,-0.13
19,AACATCTT,0.0923
20,AAAGGTGA,0.0514
21,AACGGATG,-0.0818
22,AGCATAGC,-0.228
23,ACACTGAT,0.187
24,ATGCCCCC,-0.174
25,ACCTGGAG,-0.229

row,Sequence,binding signal [E-score]
1,ACCTCAGC,-0.231
2,AACCAGTC,-0.295
3,AGTCGGGG,-0.163
4,AATTCCCG,0.27
5,CAAACATG,-0.0161
6,AGCCAGGA,-0.0421
7,ACCGTATC,0.274
8,ACGCTACG,-0.105
9,AAAGTGTA,0.0173
10,ATGGATGG,-0.169
11,ATATTCTA,0.25
12,AGCTGTTG,-0.102
13,ACCAAGGA,-0.167
14,AAACGATG,-0.16
15,ATTTTCCA,0.294
16,AACTGGAG,-0.157
17,ACATTTGG,-0.0359
18,ACACCCCC,-0.21
19,ACCGCACG,-0.087

# From paper PMC5836133
